# Source: the supplement of paper PMC3334620
# Over roughly 33,000 sequences, “E-score (-0.5 to 0.5)” has its median near -0.012; the highest 2% begin near 0.29. This is one part of the list.
# Target: T1, Ybr033w (UniProt P38073)
# T1 sequence: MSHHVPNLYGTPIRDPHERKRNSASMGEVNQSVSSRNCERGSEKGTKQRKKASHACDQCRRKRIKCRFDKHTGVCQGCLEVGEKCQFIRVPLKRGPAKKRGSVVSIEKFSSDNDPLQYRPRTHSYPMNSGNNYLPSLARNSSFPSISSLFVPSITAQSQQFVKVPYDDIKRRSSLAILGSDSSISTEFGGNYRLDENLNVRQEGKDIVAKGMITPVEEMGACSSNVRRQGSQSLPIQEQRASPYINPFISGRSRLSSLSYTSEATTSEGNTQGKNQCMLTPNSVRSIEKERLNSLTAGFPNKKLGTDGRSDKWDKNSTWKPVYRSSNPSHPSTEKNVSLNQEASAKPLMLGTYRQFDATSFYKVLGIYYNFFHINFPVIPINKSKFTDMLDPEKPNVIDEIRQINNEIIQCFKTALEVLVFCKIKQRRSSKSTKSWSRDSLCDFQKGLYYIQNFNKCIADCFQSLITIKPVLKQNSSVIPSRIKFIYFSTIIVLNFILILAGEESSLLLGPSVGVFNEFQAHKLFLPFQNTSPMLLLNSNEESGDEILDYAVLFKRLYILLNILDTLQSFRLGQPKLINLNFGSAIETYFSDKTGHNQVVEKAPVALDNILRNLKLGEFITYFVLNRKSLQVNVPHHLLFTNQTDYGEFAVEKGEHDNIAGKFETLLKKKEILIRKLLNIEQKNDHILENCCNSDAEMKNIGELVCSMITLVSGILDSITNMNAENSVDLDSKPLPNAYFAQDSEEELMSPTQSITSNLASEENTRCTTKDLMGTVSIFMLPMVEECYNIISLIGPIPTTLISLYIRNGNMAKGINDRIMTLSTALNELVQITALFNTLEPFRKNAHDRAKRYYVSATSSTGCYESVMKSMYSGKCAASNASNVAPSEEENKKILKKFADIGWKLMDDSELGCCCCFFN
# Test: PBM E-score (8-mer binding enrichment) (E-score (-0.5 to 0.5)); higher = stronger / more preferred TF binding; most listed sequences are background and not binding sites
# Conditions: protein concentration: 200 nM; construct: GST-full length
# Procedure: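 Universal 'all 10-mer' protein binding microarrays (Agilent AMADID 015681) probed with GST-tagged S. cerevisiae TFs (full-length or DBD) made by in vitro transcription/translation (PURExpress), about 100-200 nM. Bound TF was detected with fluorescent anti-GST. Each ungapped 8-mer (which stands for itself and its reverse complement) is scored by the PBM enrichment score (E-score), a modified Wilcoxon-Mann-Whitney statistic from -0.5 to +0.5, computed with the Universal PBM Analysis Suite. Scale: above 0.35 generally sequence-specific binding.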
row,Sequence,PBM E-score
1,AGATGGCC,-0.237
2,GATAGCGC,-0.0861
3,CCGATGGC,-0.16
4,CACTATCC,-0.0441
5,AAAAAAGC,0.171
6,GATCGGCA,-0.136
7,TGCTAAAA,0.0551
8,CAATTCTG,0.00143
9,CGCGACCC,-0.139
10,TCGACAGA,-0.00682
11,AATGGTCA,0.205
12,GCTGAATA,0.182
13,TCAGTTCA,0.0585
14,ATTGTTTG,0.118
15,ATGGGCAA,0.00404
16,TGGGCACA,-0.0838
17,ACTTGCAA,0.148
18,AAGGTAAC,-0.0278
19,AACCCTGT,-0.0529
20,GTGTGAAC,0.123
21,GATTGCTA,0.0334
22,AGCCCTTG,-0.0775

row,Sequence,PBM E-score
1,TAGATCGA,0.037
2,GGGAGAAC,-0.243
3,ATTTAGGG,-0.0312
4,AGGATACT,-0.0125
5,ACGCATTA,0.0633
6,ACCAGCAT,0.0255
7,AGAATAGA,0.184
8,ACGGAAGT,0.0483
9,CGGATGTC,-0.0666
10,ACATCAGG,0.038
11,CCGTCACC,-0.287
12,ATGCCATA,-0.00061
13,AACGTTCT,0.124
14,AGAGGGCT,-0.064
15,CCTAGAGA,0.0287
16,CCTACGAG,-0.105
17,CTAGTGTA,0.222
18,AAAAACCC,0.164
19,TCGGCGCA,-0.0741
20,GCAGCTGC,-0.00486
21,GATGCTCC,-0.0931
22,CTATCAAA,0.023

row,Sequence,PBM E-score
1,TCAAGCCA,-0.167
2,CCCCGAGC,-0.238
3,CTCCGGGC,-0.258
4,AGATGCTG,-0.139
5,GAAAGGTA,0.131
6,GCGTGCCC,-0.253
7,AACATAAC,0.281
8,CCGATTAG,-0.131
9,CCATTTAG,-0.056
10,ATCCTGGG,-0.084
11,TCTTGTAA,0.14
12,CACCTGGA,-0.0177
13,CTCGGTTA,-0.088
14,ACGGAAGG,-0.126
15,CGAAAGTA,-0.0412
16,CTTACTTC,0.133
17,CTGTCCAA,-0.0179
18,GGTCTGAC,-0.179
19,CCACCCTA,0.0231
20,GGGCGCCA,-0.146
21,GACTCGGA,-0.0488
22,CCATTTCG,-0.112

row,Sequence,PBM E-score
1,ACTGGTAT,-0.0881
2,ACTCGACA,0.0137
3,CTTTATAA,0.0351
4,ACAATTGC,0.0115
5,CGGCGTAG,-0.155
6,ACATTTAC,0.117
7,CTACGATC,-0.0637
8,ACCGGGTC,-0.0994
9,GGGCATAC,-0.1
10,CGTTTTTA,0.186
11,CTAAAGGC,-0.0862
12,ATTCAGAC,0.0909
13,CCTAGTGA,-0.156
14,CTCTGTCA,-0.0348
15,GGTCTGCA,-0.263
16,CGCTACGC,-0.234
17,ACGCTCAT,-0.0548
18,ATTTCGGG,0.00241
19,AAAGGGAC,-0.0798
20,AAACTAGG,0.0193
21,CTCAAAAA,0.0775
22,GGTCCCCA,-0.231

row,Sequence,PBM E-score
1,GTTGAACA,-0.082
2,TAAGAAAA,0.224
3,CGTTCCAA,0.028
4,CCACAAAC,0.077
5,GCCCGTAC,-0.288
6,AGCCCTCA,-0.181
7,GTTTCATA,0.154
8,AACTTCGG,0.0908
9,CGCAACGA,-0.016
10,ATTTCAGA,-0.0877
11,TTCGGCAA,0.167
12,CAGATGCG,-0.221
13,ACCCGCCA,-0.151
14,AGACCCAG,-0.187
15,GTCTACAA,0.0179
16,AGCTGCCG,-0.115
17,ACCCCAGA,-0.119
18,GAATAATC,0.379
19,CTCGGACC,-0.126
20,CAGATTAA,0.291
21,AACCGTAA,-0.0251
22,GTCTGAAA,-0.0395
